# From paper PMC4336329 (PLoS ONE, 2015)
# In all, about 310,000 compounds went through this assay and about 2,200 (0.71%) showed an effect of 50% or more. Effects have a minus sign here. Some of the results follow.
# Molecular target: human ether-à-go-go-related gene (hERG) potassium channel (human, UniProt Q12809)
# Assay: primary screen, population patch clamp on CHO cells stably expressing hERG
# Sequence of human ether-à-go-go-related gene (hERG) potassium channel (Q12809 whole entry, looked up): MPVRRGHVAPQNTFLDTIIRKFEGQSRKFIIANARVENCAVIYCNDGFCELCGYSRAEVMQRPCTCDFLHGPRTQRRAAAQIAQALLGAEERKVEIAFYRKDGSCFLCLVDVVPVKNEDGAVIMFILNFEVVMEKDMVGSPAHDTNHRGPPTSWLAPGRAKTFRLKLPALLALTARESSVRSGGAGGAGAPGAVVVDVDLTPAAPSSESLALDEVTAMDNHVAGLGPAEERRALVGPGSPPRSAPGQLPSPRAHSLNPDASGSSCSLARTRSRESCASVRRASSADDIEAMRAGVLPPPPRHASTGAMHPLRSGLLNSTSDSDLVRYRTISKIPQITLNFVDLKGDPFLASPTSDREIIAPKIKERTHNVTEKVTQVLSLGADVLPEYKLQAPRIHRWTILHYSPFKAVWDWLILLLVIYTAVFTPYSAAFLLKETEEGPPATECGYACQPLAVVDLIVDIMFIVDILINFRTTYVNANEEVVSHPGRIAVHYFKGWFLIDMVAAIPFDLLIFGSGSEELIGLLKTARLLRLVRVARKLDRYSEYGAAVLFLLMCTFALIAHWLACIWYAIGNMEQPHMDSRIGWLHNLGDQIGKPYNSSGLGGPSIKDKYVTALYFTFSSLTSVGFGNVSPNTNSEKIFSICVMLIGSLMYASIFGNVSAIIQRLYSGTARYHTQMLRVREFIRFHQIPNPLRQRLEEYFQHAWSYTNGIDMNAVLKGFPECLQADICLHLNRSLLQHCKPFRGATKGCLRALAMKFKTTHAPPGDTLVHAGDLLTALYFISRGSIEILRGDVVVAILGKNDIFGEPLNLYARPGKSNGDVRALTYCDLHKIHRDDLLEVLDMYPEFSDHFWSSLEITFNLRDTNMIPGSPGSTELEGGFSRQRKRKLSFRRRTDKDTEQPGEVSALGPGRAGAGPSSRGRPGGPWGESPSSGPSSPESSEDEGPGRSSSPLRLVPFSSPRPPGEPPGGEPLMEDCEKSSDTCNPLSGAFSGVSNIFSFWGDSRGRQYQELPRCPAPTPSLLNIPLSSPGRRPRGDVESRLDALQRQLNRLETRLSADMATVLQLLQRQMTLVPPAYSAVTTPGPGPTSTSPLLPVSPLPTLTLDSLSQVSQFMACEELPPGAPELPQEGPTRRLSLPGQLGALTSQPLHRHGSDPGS
row,SMILES,"hERG current change (%, negative = inhibition) at 1uM"
1,CC(C)Sc1nc2c(c(=O)[nH]c(=O)n2C)n1C,2%
2,COc1ccc(N2CCN(C(=O)Cc3coc4cc(C)ccc34)CC2)cc1,10.3%
3,Cc1ccc(/C=C/C(=O)NN2CCN(C)CC2)cc1,16.3%
4,CCOC(=O)C1CCN(S(=O)(=O)c2ccc(NC(=O)OC)cc2)CC1,-18.1%
5,CCCC1C(=O)Nc2ccccc2N1C(=O)c1cccc(C)c1 (stereo not drawn),9.48%
6,CN(C)S(=O)(=O)c1ccc(C(=O)Nc2cc(=O)n(C)c(=O)n2C)cc1,19.9%
7,CCOC(=O)c1[nH]c2ccc(OC)cc2c1NC(=O)CCN1CCC(C)CC1,2.44%
8,C=C(C)C1CC=C(C)/C(=N/NC(=O)COc2ccc(Cl)cc2)C1 (stereo not drawn),10.2%
9,CC1=C(C(=O)OC(C)C)C(C)NC(=O)N1 (stereo not drawn),-8.01%
10,CCOc1ccc2ccccc2c1/C=N/NC(=O)CNC(=O)c1ccccc1F,9.07%
11,COc1cc(C(=S)N2CCCC2)cc(OC)c1OS(=O)(=O)c1ccc(NC(C)=O)cc1,6.43%
12,O=C1COc2ccc(-c3csc(NCCc4ccccc4)n3)cc2N1,5.62%
13,O=C(O)c1ccccc1C(=O)c1ccc(N2CCOCC2)c([N+](=O)[O-])c1,11.9%
14,COc1ccc(C(=O)Nc2ccc3nc(C)c(C)nc3c2)cc1,11.5%
15,Cn1c(-c2ccccc2)cnc1NCc1ccccc1,9.64%
16,O=C(Nc1nnc(C2CCCCC2)s1)c1cccs1,15.8%
17,O=C(NNC(=S)Nc1ccccc1)c1cccnc1,-2.98%
18,CN(CC(=O)N1CCCCCC1)S(=O)(=O)c1ccc(F)cc1,14.7%
19,Cc1ccc(C(=O)C(OC(=O)COc2ccccc2C)c2ccccc2)cc1 (stereo not drawn),5.27%
20,CCOC(=O)c1[nH]c(C)c(C(=O)N2CCN(c3cccc(Cl)c3)CC2)c1C,-2.34%
21,Cc1ccc(-c2nnn(CC(=O)N(CC(=O)NC3CCCCC3)c3cnc4ccccc4c3)n2)o1,-4.11%
22,COc1ccc(N/C(N)=N/c2nc(CSc3ccc(Cl)cc3)cc(=O)[nH]2)cc1,13.8%
23,Cc1ccc(NC(=O)COC(=O)C2CC2)cc1Cl,5.57%

row,SMILES,"hERG current change (%, negative = inhibition) at 1uM"
1,CCOc1ccc(CNC(=O)C2CCN(c3nn4c(=O)cc(C)nc4s3)CC2)cc1,-2.79%
2,O=C1C2C(c3ccccc3)C=CC(c3ccccc3)C2C(=O)N1CCCO (stereo not drawn),5.52%
3,CCCCN1C(=S)NC[C@@H]1C(C)CC (stereo partly drawn),12.8%
4,Nc1c(C(=O)NCCN2CCOCC2)c2nc3ccccc3nc2n1Cc1ccccc1,10.6%
5,CCc1ccc(OCC(=O)N(C)C)c(Br)c1,-0.248%
6,COc1ccc2c(c1)c(C(=O)OCCN(C)C)c(C)n2C.Cl,10.4%
7,COC(=O)c1ccccc1NC(=O)c1ccccc1N(C)S(=O)(=O)c1ccccc1,10.8%
8,O=c1c2c(-c3ccc(Cl)cc3)csc2ncn1/N=C/c1cccc([N+](=O)[O-])c1O,3.76%
9,COc1ccc(NC(=O)C(C)SCc2ccccc2)cc1 (stereo not drawn),5.37%
10,O=C(/C=C/c1ccc2c(c1)OCO2)Nc1c(C(=O)O)[nH]c2ccccc12,9.83%
11,O=C(Cn1cc2c(n1)CCCC2)Nc1ccccc1Cl,11.8%
12,CCN1CCN(S(=O)(=O)CC2(C)C3CCC2(C)C(=O)C3Br)CC1 (stereo not drawn),9.87%
13,CC1CC(C)CN(S(=O)(=O)N2CCCC(C(=O)NCCCN3CCCCC3C)C2)C1 (stereo not drawn),1.35%
14,O=C(Cc1cccs1)N1CCN(S(=O)(=O)c2ccc(Br)cc2)CC1,6.64%
15,Cc1oc(C(=O)O)cc1CSc1nnc(-c2ccccc2)n1C,1.36%
16,CCOC(=O)c1sc(-c2ccc(F)cc2)cc1NC(=O)Nc1ccccc1OC,-2.89%
17,Cc1cccc(Cn2c(N3CCN(c4ccccc4)CC3)nc3c2c(=O)n(C)c(=O)n3C)c1,-10.7%
18,Cc1ccc(-n2c(SC3CCOC3=O)nc3ccccc3c2=O)cc1 (stereo not drawn),-5.71%
19,Cc1ccc(CNC(=O)CNC(=O)[C@@H]2Cc3ccccc3CN2C(=O)OC(C)(C)C)cc1,1.62%
20,CCN(C(=O)COn1nnc2ccc(S(=O)(=O)N(C)C)cc21)C1CCS(=O)(=O)C1 (stereo not drawn),9.66%
21,CC(=O)Nc1ccc(NC(=O)COc2cc(O)c3c(c2)OC(C)(C)CC3=O)cc1,-6.05%
22,COc1ccc(OC)c(C(=O)COC(=O)C(CCSC)NC(=O)COc2ccccc2)c1 (stereo not drawn),-1.63%
23,Cc1nc(SCC(=O)c2cc3ccccc3oc2=O)c(C#N)c(-c2ccccc2)c1C(=O)Nc1ccccc1,0.99%

row,SMILES,"hERG current change (%, negative = inhibition) at 1uM"
1,COC(=O)N/N=C/c1ccc(-c2ccc(Cl)c(Cl)c2)o1,7.64%
2,CCNCc1ccc(OCc2cccs2)c(OCC)c1,9.84%
3,CCc1cccc(C)c1NC(=O)C1CCCN(S(C)(=O)=O)C1 (stereo not drawn),20.8%
4,CCOC(=O)c1c(-c2ccc(C)cc2)csc1NC(=S)NC(=O)c1ccccc1,6.98%
5,CC(C)c1cccc(O)c(=O)c1,3.29%
6,Cc1ccccc1OCCC(=O)Nc1ccc(Cl)cc1F,11.5%
7,CSc1cccc(NC(=O)CSc2ccc(Cl)cc2)c1,10.6%
8,Cc1nc2cc(C(F)(F)F)ccc2n1CCNc1nc(-c2ccc([N+](=O)[O-])c(Cl)c2)cs1,-0.503%
9,Cc1ccc2nc(C)cc(C(=O)N/N=C/c3ccncc3)c2c1,8.95%
10,CC(OC(=O)c1ccc2ncsc2c1)C(=O)N1CCCC1 (stereo not drawn),-30.7%
11,COc1ccc(N(CC(=O)N/N=C/c2cccs2)S(=O)(=O)c2ccccc2)cc1,18.3%
12,Cc1nnc(SCC(=O)Nn2cnnc2)s1,-5.95%
13,CCC(=O)N(C(=O)CC)N1CCN(c2ccncc2S(=O)(=O)N2CCCCC2)CC1,-25.4%
14,CCN1/C(=C\C=C\C2=[N+](CC)c3ccccc3C2(C)C)C(C)(C)c2ccccc21.[O-][Cl+3]([O-])([O-])[O-],-86.1%
15,COC(=O)c1cccnc1Oc1ccccc1,6.52%
16,CCc1c(C)nc(N)n2c(SCC(=O)N3CCCc4ccccc43)nnc12,4.67%
17,CCOc1ccc(CNc2nc3ccccc3n2C)cc1,8.49%
18,CCOc1cc(S(=O)(=O)N2CCCCC2)ccc1Cl,12%
19,COc1ccc(S(=O)(=O)N(C)c2ccc(C(=O)N3CCCC3)cc2)cc1OC,15.4%
20,Cc1cc(C(=O)N/N=C/c2cccc([N+](=O)[O-])c2)c(C)o1,6.99%
21,CCOCCCn1c(=O)c(NC(=O)c2ccc(OCC)cc2)c2n(c1=S)CCCCC2,7.94%
22,CC(=O)Nc1cccc(NC(=O)CSc2nc3c(c(=O)n(C)c(=O)n3C)n2C)c1,-11%
23,CS(=O)(=O)N(CC(=O)Nc1c(F)cccc1F)Cc1ccccc1,10.3%

row,SMILES,"hERG current change (%, negative = inhibition) at 1uM"
1,CC1(C)CC(=O)c2c(Cc3ccccc3)noc2C1,8.4%
2,CCOC(=O)CCCCNCc1ccccc1.Cl,-0.854%
3,O=C(COC(=O)/C=C/c1cccc(Cl)c1)NCCC1=CCCCC1,-10.2%
4,Cc1c(Cl)ccc(S(=O)(=O)Nc2cccnc2)c1Cl,13.8%
5,CCOC(=O)CC1Sc2ccccc2NC1=S (stereo not drawn),9.88%
6,CCOC(=O)C1=C(C)C(c2cccc(Oc3ccccc3)c2)NC(=S)N1 (stereo not drawn),6.73%
7,CCOC(=O)c1cc2sccc2n1CC(=O)N1c2ccccc2CC1C (stereo not drawn),7.07%
8,Nc1nonc1-c1nc2ccccc2n1Cc1ccc(Cl)cc1,-7.76%
9,O=C(Nc1ccc(F)cc1F)N1CCCN(CCOc2ccccc2)CC1,-19.7%
10,CCOC(=O)N1CCN(C(=O)C2COc3ccccc3O2)CC1 (stereo not drawn),9.53%
11,O=C(c1ccc(C(F)(F)F)cc1)N1CCC(=O)N(C(CO)Cc2ccccc2)CC1 (stereo not drawn),9.19%
12,Cc1ccc(C(=O)c2ccccc2C(=O)OCC(=O)NCC2CCCO2)cc1 (stereo not drawn),9.58%
13,COC(=O)CCc1nc2cc(Cl)ccc2n(Cc2ccccc2)c1=O,-8.16%
14,COc1ccccc1NC(=O)C(C)NS(=O)(=O)c1ccc(F)cc1 (stereo not drawn),4.97%
15,O=C(NCc1ccc(F)cc1)C(c1cccs1)N(C(=O)c1csnn1)C1CC1 (stereo not drawn),2.42%
16,CCOc1ccccc1NC(C)C(=O)Nc1cc(C(F)(F)F)ccc1N1CCOCC1 (stereo not drawn),6.81%
17,O=C(c1ccc2c(c1)OCO2)N1CCN(C(=O)c2ccco2)CC1,3.8%
18,Cc1ccc(-c2n[nH]c(=S)n2/N=C/c2ccncc2)cc1,14.3%
19,C[C@@H]1CC[C@]2(O[C@@H](CCO)C[C@@H](O)[C@@H]2O)O1,12.9%
20,O=C(Cn1cnc(S(=O)(=O)N2CCCCC2)c1)Nc1ccc(OC(F)(F)F)cc1,11.7%
21,O=C(NCCN1CCCCC1)Nc1ccc(Cl)cc1,-4.04%
